Test results from PubChem BioAssay AID1460 (National Center for Advancing Translational Sciences (NCATS), 2008).
About 5,800 (2.1%) of roughly 270,000 compounds were called active. The inconclusive results got no clear call from the source; some entries with a clear call stand among them for comparison. Calls follow the shape of the dose curve; as a rule, active = well fitted inhibition curve with a large enough effect; inconclusive = small, poorly fitted or top-dose-only effect; inactive = flat fitted curve, though single readings scatter. A potency beside an inconclusive call is a rough fit, not a confirmed value.

molecular target: Microtubule-associated protein tau (Homo sapiens) (UniProt P10636); assay: qHTS for Inhibitors of Tau Fibril Formation, Thioflavin T Binding; details: recombinant tau K18 P301L, heparin-induced fibrillization, ThT fluorescence; series mostly up to 57.4 µM; also: nearly all actives have a fitted effect of over 55% in size
In short: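 Fibril formation assay: tau K18 P301L at 15 uM with trace Alexa 594 label, heparin inducer 20 uM, pH 7 sodium acetate buffer, 37 C for 6 hr; endpoint ThT signal.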
% is scaled to controls: 0 for no effect and ±100 for the full control effect; potency is read from the fitted curve at half-maximal effect; tags tell the direction and shape of the fitted curve.

UniProt P10636, sequence (P10636 whole entry, looked up): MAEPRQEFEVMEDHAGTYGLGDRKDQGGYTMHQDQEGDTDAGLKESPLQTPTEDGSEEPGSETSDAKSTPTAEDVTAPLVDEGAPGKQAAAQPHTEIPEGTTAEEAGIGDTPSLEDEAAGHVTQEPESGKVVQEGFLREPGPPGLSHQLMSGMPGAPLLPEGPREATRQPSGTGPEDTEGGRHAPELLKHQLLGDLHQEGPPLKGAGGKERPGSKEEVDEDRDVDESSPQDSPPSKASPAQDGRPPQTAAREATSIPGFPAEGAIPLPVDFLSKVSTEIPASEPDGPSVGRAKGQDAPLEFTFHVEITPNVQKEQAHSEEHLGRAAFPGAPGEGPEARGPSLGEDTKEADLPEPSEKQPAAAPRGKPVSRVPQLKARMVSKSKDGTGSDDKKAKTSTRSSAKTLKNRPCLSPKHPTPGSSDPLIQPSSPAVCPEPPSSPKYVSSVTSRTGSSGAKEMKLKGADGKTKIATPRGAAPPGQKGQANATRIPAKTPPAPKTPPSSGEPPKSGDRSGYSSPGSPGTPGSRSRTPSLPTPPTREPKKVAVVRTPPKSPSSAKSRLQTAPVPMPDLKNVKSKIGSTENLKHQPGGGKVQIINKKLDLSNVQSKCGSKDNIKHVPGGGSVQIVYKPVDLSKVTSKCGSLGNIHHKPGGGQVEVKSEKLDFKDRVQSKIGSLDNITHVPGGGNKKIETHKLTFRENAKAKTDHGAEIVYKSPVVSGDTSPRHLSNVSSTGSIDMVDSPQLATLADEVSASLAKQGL

Row | SMILES | Potency | activity, negative = inhibition
1 | CCOC(=O)c1ccccc1N/C=C1\CCCC1=O | inconclusive: 31.6 µM [inhibitor, single point] | –
2 | CC(=O)[C@@H]1[C@@H]2C(=O)N(c3ccccc3F)C(=O)[C@@H]2[C@H]2c3ccccc3C=NN12 | inconclusive: 39.8 µM [inhibitor, single point] | –
3 | CCOC(=O)c1nnn2c1nc(N1CCN(c3ccccc3)CC1)c1ccccc12 | inconclusive: 17.8 µM [inhibitor, single point] | –
4 | COc1ccc2c(=O)c(-c3nc(C)cs3)coc2c1 | inconclusive: 6.31 µM [inhibitor, partial curve] | –
5 | CC(=O)N1CCc2cc(S(=O)(=O)NC(CC(C)C)C(=O)NCCc3ccc(C)cc3)ccc21 (configuration not stated) | inactive | –
6 | Cn1cc(C(=O)N/N=C/c2c(O)ccc3ccccc23)ccc1=O | inactive | –
7 | CC(=O)Nc1ccc(NC(=O)c2ccccc2Sc2ccc([N+](=O)[O-])cc2Cl)cc1 | inactive | –
8 | CCCOc1ccc(/C=C/C(=O)Nc2ccc([N+](=O)[O-])cc2C)cc1 | inconclusive: 1.58 µM [inhibitor, partial curve] | –
9 | O=C(Nc1ccc(-c2ccc3nncn3n2)cc1)c1ccc(Br)o1 | inconclusive: 0.891 µM [inhibitor, full curve] | –
10 | CC(=O)NS(=O)(=O)c1ccc(NC(=O)/C=C/c2ccc(C)o2)cc1 | inconclusive: 20 µM [inhibitor, single point] | –
11 | COc1ccc(OCCn2c(C(C)Oc3ccccc3)nc3ccccc32)cc1 (configuration not stated) | inconclusive: 25.1 µM [inhibitor, single point] | –
12 | COc1cccc([C@@H]2Oc3ccc(OC)cc3/C(=N/O[C@@H](C)CN3CCCCc4nc(C)c(C)cc43)[C@@H]2O)c1 | – | inactive: -16.2% [at 11.5 µM]
13 | CCOC(=O)N1[C@@H]2C=C(C)[C@@H]2[C@@H]2[C@@H](C)C(=O)N21 | inactive | –
14 | CCOc1ccc(CCNC(=O)Cn2c(=O)c3cccn3c3ccc(F)cc32)cc1OCC | inconclusive: 0.251 µM [inhibitor, full curve] | –
15 | COC(=O)CC(=O)CSc1nc2c(cc1C#N)CCC2 | inconclusive: 44.7 µM [inhibitor, partial curve] | –
16 | CCn1nc(C(=O)Nc2cccc3ccccc23)c(Cl)c1Cl | inconclusive: 35.5 µM [inhibitor, single point] | –
17 | COc1ccc(C2C=C(c3cccs3)Nc3nc(CCCO)nn32)cc1 (configuration not stated) | inconclusive: 20 µM [activator, partial curve] | –
18 | CCn1cnc2cc(NCc3cccc(OC)c3O)ccc21 | inconclusive: 31.6 µM [inhibitor, single point] | –
19 | Oc1ccc(/C=N/N2CCN(C3c4ccccc4-c4ccccc43)CC2)cc1O | inconclusive: 15.8 µM [inhibitor, partial curve] | –
20 | COc1ccc(-n2nnc(-c3nsc(NC(=O)c4cccs4)n3)c2C)cc1OC | inconclusive: 0.631 µM [inhibitor, full curve] | –
21 | CCN(CC)CCCOc1nc(C)nc2c1oc1ccccc12 | inactive | –
22 | Cc1ccc(Cl)cc1NC(=O)N1CCC2(CC1)Oc1ccccc1C(=O)N2Cc1ccccc1F | inactive | –
23 | O=C(CCN1C(=O)/C(=C/C=C/c2ccccc2)SC1=S)Nc1nccs1 | inconclusive: 12.6 µM [inhibitor, partial curve] | –

Row | SMILES | Potency | activity, negative = inhibition
24 | Cn1c(SCC(=O)N/N=C/c2ccncc2)nc2ccccc21 | inactive | –
25 | O=C(Nc1cccs1)NC1CCCC1 | inconclusive: 31.6 µM [inhibitor, partial curve] | –
26 | Cc1cccc(NC(=O)c2sc3nc(-c4ccccc4)cn3c2C)c1C | inconclusive: 0.316 µM [inhibitor, full curve] | –
27 | COc1ccc(-c2noc(CCCC(=O)O)n2)cc1 | inactive | –
28 | CCOC(=O)c1cnc(SCC(=O)Nc2ccc(N3CCOCC3)cc2)nc1N | inconclusive: 1.58 µM [inhibitor, full curve] | –
29 | O=C(CSc1n[nH]c(-c2ccccc2)n1)N1CCN(c2ccccc2F)CC1 | inconclusive: 39.8 µM [inhibitor, single point] | –
30 | O=C(NC(=S)Nc1ccc2c(c1)OCCO2)c1cccc2ccccc12 | inconclusive: 7.08 µM [inhibitor, partial curve, poor fit] | –
31 | CCOC(=O)c1[nH]c(C)c(/C(O)=C2\C(=O)C(=O)N(CCCn3ccnc3)C2c2ccncc2)c1C (configuration not stated) | inconclusive: 12.6 µM [inhibitor, partial curve, poor fit] | –
32 | COCc1cc(=O)n2[nH]c(-c3cccc(Br)c3)cc2n1 | inconclusive: 39.8 µM [inhibitor, single point] | –
33 | CC1(C(=O)CSc2n[nH]c(-c3ccccc3Cl)n2)CCC(=O)O1 (configuration not stated) | inactive | –
34 | COC(=O)c1ccccc1NC(=O)c1ccc2c(c1)OCCO2 | inconclusive: 11.2 µM [inhibitor, partial curve] | –
35 | O=C(/C=C/c1cn(-c2ccccc2)nc1-c1cccnc1)c1ccco1 | inconclusive: 20 µM [inhibitor, partial curve] | –
36 | CCOC(=O)c1c(NC(=O)C(Sc2ccccc2)c2ccccc2)sc(C(N)=O)c1C (configuration not stated) | inconclusive: 12.6 µM [inhibitor, partial curve] | –
37 | CNc1ccc(/C=C/C(=O)c2ccc3c(c2)OCCO3)cc1[N+](=O)[O-] | active: 2.51 µM | –
38 | CCCCCCN(C(=O)CCCCCN1C(=O)NC(c2ccccc2)C(C(=O)OCc2ccccc2)=C1C)C(C(=O)NCCCC)c1ccc(OCC(=O)OC)c(C(=O)OC)c1 (configuration not stated) | inconclusive: 0.562 µM [inhibitor, single point] | –
39 | CC1=C(C(N)=O)N2C(=O)[C@@H](NC(=O)Cc3ccccc3)C2SC1 (some centres not stated) | inactive | –
40 | Cc1ccc(C(=O)C2=C(O)C(=O)N(CCCn3ccnc3)C2c2ccc(OC(C)C)cc2)o1 (configuration not stated) | inconclusive: 25.1 µM [inhibitor, partial curve, poor fit] | –
41 | Cc1nn(C(=O)COc2ccccc2Br)c(C)c1Sc1ccccc1 | inactive | –
42 | CNC(=O)c1cc2c(s1)-c1ccccc1CC2 | inconclusive: 8.91 µM [inhibitor, partial curve] | –
43 | Cc1cc(C)nc(/N=C2/NC(=O)CS2)n1 | inconclusive: 22.4 µM [inhibitor, single point] | –
44 | COc1ccc(CCn2c(O)cc3nn(-c4nc5ccccc5s4)c(=O)c-3c2C)cc1 | active: 17.8 µM | –
45 | COC(=O)c1ccc(C(c2c(N)n(CC(C)C)c(=O)[nH]c2=O)N2CCN(c3ccccc3)CC2)cc1 (configuration not stated) | inconclusive: 15.8 µM [inhibitor, partial curve] | –
46 | CC1=NN(c2nc3ccccc3[nH]2)C(=O)/C1=C/N(C)C | inconclusive: 15.8 µM [inhibitor, partial curve] | –

Row | SMILES | Potency | activity, negative = inhibition
47 | O=C1Nc2ccccc2/C1=C/C(=O)c1cccs1 | active: 17.8 µM | –
48 | Cc1cc(C)c2nc(NNC(=O)c3ccc(S(=O)(=O)N4CCCCC4)cc3)sc2c1 | active: 22.4 µM | –
49 | CCCOc1ccc(Cn2c(O)cc(=O)[nH]c2=O)cc1 | active: 25.1 µM | –
50 | Cc1nn2c(-c3ccncc3)nnc2c2ccccc12 | inactive | –
51 | CC[C@H]1C2=C3C(CC[C@H]4C(OC)OC[C@](C)([C@@H]34)N(C(=O)OC(C)(C)C)C2)C(CO)C1CO (some centres not stated) | inactive | –
52 | Brc1ccc(C2=CC(c3cccs3)n3ncnc3N2)cc1 (configuration not stated) | inconclusive: 39.8 µM [activator, single point] | –
53 | O=C(/C=C/c1ccc(N2CCC(c3ccccc3)=N2)cc1)c1ccccc1 | inconclusive: 4.47 µM [inhibitor, partial curve] | –
54 | C=CCN(CC=C)c1nc2ccccc2nc1C(C#N)C(=O)OCCOC (configuration not stated) | inconclusive: 20 µM [inhibitor, partial curve] | –
55 | Cc1ccc(C2C(C#N)=C(N)Oc3cc(C)oc(=O)c32)o1 (configuration not stated) | inconclusive: 10 µM [inhibitor, partial curve] | –
56 | CCc1ccc(OCC(O)CN2CCC(CN3C(=O)c4cccc5cccc(c45)C3=O)CC2)cc1 (configuration not stated) | inconclusive: 22.4 µM [inhibitor, single point] | –
57 | O=C(CSc1nc(-c2cccs2)nc2cc(=O)[nH]n12)Nc1cccc(C(F)(F)F)c1 | inconclusive: 22.4 µM [inhibitor, single point] | –
58 | CCOc1ccc(C(=O)N(Cc2cc(OC)c(OC)c(OC)c2)c2ccccn2)cc1 | inconclusive: 17.8 µM [inhibitor, single point] | –
59 | Cc1cc(OCCCn2c(CCNC(=O)C3CCCCC3)nc3ccccc32)ccc1Cl | inconclusive: 39.8 µM [inhibitor, single point] | –
60 | COc1ccc(N(CC(=O)Nc2cccc(C(C)=O)c2)S(=O)(=O)c2ccccc2)c(OC)c1 | inactive | –
61 | Cc1cc(N2CCOCC2)nc2ccc(NC(=O)CCC(=O)N3CCCCC3)cc12 | inconclusive: 15.8 µM [inhibitor, partial curve] | –
62 | CCn1c(SCc2nc3scc(-c4ccccc4)c3c(=O)[nH]2)nnc1-c1cccs1 | inconclusive: 8.91 µM [inhibitor, partial curve] | –
63 | COc1ccc(-c2c3c(=O)n(C)c(=O)n(C)c3c3n2-c2ccccc2NC3c2ccc(O)cc2O)cc1 (configuration not stated) | inconclusive: 3.98 µM [inhibitor, full curve] | –
64 | CCc1nc2ccccc2c(C(=O)Oc2cccc3cccnc23)c1C | inconclusive: 10 µM [inhibitor, partial curve] | –
65 | CCCNC(=O)c1ccc(-c2nc(CS(=O)(=O)c3ccc(C)cc3)c(C)o2)cc1 | inactive | –
66 | c1ccc(CCCCNCC2COc3ccccc3O2)cc1 (configuration not stated) | inactive | –
67 | N#CCN1CCC(c2cc(-c3ccco3)n[nH]2)CC1 | inconclusive: 22.4 µM [inhibitor, partial curve] | –
